# Test results: PubChem BioAssay AID624417 (National Center for Advancing Translational Sciences (NCATS), 2012)
# The campaign covered roughly 410,000 compounds. About 6,400 (1.6%) were called active. The shares of active, inactive and inconclusive entries below differ from those in the screen. Calls come from the whole dose curve; as a rule, active = well fitted inhibition curve with a large enough effect; inconclusive = small, poorly fitted or top-dose-only effect; inactive = no such curve, though single readings can be large or run the other way. No potency is given beside an inconclusive call; the fits are too rough.
# Target: Glucagon-like peptide 1 receptor (Homo sapiens) (UniProt P43220)
# Test: qHTS of GLP-1 Receptor Inverse Agonists (Inhibition Mode); note: nearly all actives have a fitted effect of over 55% in size
# Conditions: HEK293 GLP-1R CRE-luciferase, luminescence, 24 h, GLP-1R form is constitutively active; activity change, negative = inhibition: at 38.3 µM (top of the series) unless noted
# Procedure, shortened: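 Inverse agonists were sought by their lowering of basal cAMP reporter luciferase output in HEK293 cells stably carrying constitutively active human GLP-1R, after 24 h compound treatment.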
# % is set by controls: 0 for no effect and ±100 for the full control effect; potency is the fitted concentration of half-maximal effect; tags give direction and shape of the fitted curve.
# UniProt P43220, sequence (P43220 whole entry, looked up): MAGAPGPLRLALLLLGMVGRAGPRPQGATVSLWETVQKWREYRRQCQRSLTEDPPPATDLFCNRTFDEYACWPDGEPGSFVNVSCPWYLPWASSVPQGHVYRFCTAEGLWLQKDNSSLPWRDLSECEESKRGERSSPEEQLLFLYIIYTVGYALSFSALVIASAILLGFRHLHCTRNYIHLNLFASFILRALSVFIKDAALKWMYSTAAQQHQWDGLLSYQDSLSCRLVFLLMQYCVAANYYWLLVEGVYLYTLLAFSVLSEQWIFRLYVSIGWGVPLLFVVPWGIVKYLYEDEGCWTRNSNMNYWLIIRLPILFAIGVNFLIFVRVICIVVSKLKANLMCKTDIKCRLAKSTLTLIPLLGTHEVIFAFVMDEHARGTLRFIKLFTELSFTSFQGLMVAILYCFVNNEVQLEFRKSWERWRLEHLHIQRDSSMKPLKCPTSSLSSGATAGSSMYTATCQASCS
SMILES,Potency,"activity change, negative = inhibition"
CSc1ccc(CCNC(=O)c2nn(C)c3c2CS(=O)(=O)c2ccccc2-3)cc1,"inconclusive [inhibitor, full curve, poor fit]",
Nc1cc(N)c(OCC(F)(F)F)cc1OCC(F)(F)F,,inactive: 32%
CCOC(=O)Cc1csc(NC(=O)c2ccc(Cl)s2)n1,"inconclusive [inhibitor, single point]",
CC(=O)c1c(C)[nH]c(C(=O)NNC(=O)COc2ccc(Cl)cc2C)c1C,"inconclusive [inhibitor, single point]",
COc1ccc(-c2oc3ccc(N4CCOCC4)cc3c2C#CC2(O)CCCCC2)cc1,,inactive: 3.01%
O=[N+]([O-])c1cnc(Sc2ccncn2)s1,"inconclusive [inhibitor, full curve, poor fit]",
COc1cccc(C(=O)NC(=S)N2c3ccccc3CC2C)c1OC (stereo not given),"inconclusive [inhibitor, partial curve, poor fit]",
N#C/C(=C\c1cccnc1)c1ccccc1[N+](=O)[O-],"inconclusive [inhibitor, single point]",
COc1ccccc1CNc1nc2cc(-c3ccccc3C)sc2c(=O)n1C,"inconclusive [inhibitor, single point]",
Cc1[nH]c2ccccc2c1/C=N/NC(=O)c1cc(C(C)(C)C)[nH]n1,"inconclusive [inhibitor, partial curve, poor fit]",
C=CCNc1nc(NCc2ccc(N(C)C)cc2)c2sc(-c3ccccc3)cc2n1,"inconclusive [inhibitor, partial curve, poor fit]",
O=C(COn1nnc2ccc(C(F)(F)F)cc21)Nc1c(Cl)cccc1Cl,"inconclusive [inhibitor, partial curve, poor fit]",
CCOC(=O)c1cnc(NCc2ccc(Cl)cc2)c2ccccc12,"inconclusive [inhibitor, single point]",
Cc1cc(-c2nc(C)c(-c3nnc(SCC(=O)Nc4cc(Cl)cc(Cl)c4)n3C)s2)no1,,inactive: -19.1%
O=C(Cc1ccc(F)cc1)NCCc1csc(-c2ccc(C(F)(F)F)cc2)n1,"inconclusive [inhibitor, single point]",
Cn1c(CN2CCCCC2)nc2cc(NC(=O)c3ccc(Cl)cc3)ccc21,"inconclusive [inhibitor, partial curve]",
Cn1ccc2c(-c3ccc(F)cc3F)cc3c(c21)C1CCC3C1 (stereo not given),"inconclusive [inhibitor, partial curve, poor fit]",
C[C@H](CO)N1C[C@H](C)[C@@H](CN(C)CC2CCOCC2)Oc2cc(C#Cc3ccccc3F)ccc2S1(=O)=O,"inconclusive [inhibitor, single point]",
CCOc1ccc(CCNC(=O)c2nn(-c3ccc(OC)cc3)c(=O)c3c2c2ccccc2n3C)cc1OCC,,inactive: 4.64%
Cc1ccccc1CSc1nnc(CCCCCNC(=O)OC(C)(C)C)o1,"inconclusive [inhibitor, partial curve]",

SMILES,Potency,"activity change, negative = inhibition"
Cc1nn(-c2ccccc2)c2sc(C(=O)N3CCCCC3)cc12,"inconclusive [inhibitor, partial curve, poor fit]",
COc1ccccc1-n1c(CCn2nc(C)c(Br)c2C)n[nH]c1=S,,inactive: 14.7%
S=C(NCC1CCCO1)Nc1ccc(Nc2ccccc2)cc1 (stereo not given),"inconclusive [inhibitor, partial curve, poor fit]",
O=C(O)CCc1ccc(-c2ccc(Cl)cc2)n1-c1cccc(C(F)(F)F)c1,"inconclusive [inhibitor, partial curve, poor fit]",
COc1cccc(C(C(=O)NC2CCCC2)N2CCN(c3cc(C)ccc3C)CC2)c1OC (stereo not given),active: 8.91 µM,
CC1c2cc3c(cc2CCN1C(=O)c1ccc(C(F)(F)F)cc1)OCCCO3 (stereo not given),"inconclusive [inhibitor, partial curve, poor fit]",
O=C(NCC1CCCCC1)c1ccc([N+](=O)[O-])cc1,"inconclusive [inhibitor, single point]",
CCc1ccc(OC2(C)CCN(CCOc3ccc(C)cc3)C2)cc1 (stereo not given),"inconclusive [inhibitor, single point]",
CC(=O)NC(c1ccccc1)c1cc(Cl)c2cccnc2c1O (stereo not given),"inconclusive [inhibitor, single point]",
COc1ccccc1C(C[N+](=O)[O-])c1c[nH]c2ccccc12 (stereo not given),active: 10 µM,
CCCN(CC(=O)Nc1ccccc1C)C(=O)C1CCN(c2ncnc3sc(C)c(C)c23)CC1,"inconclusive [inhibitor, single point]",
CCOc1ccc2nc(N(CCN(C)C)C(=O)c3ccc4c(c3)CCCC4)sc2c1,"inconclusive [inhibitor, partial curve, poor fit]",
O=[N+]([O-])c1cccc(Cl)c1NCCNS(=O)(=O)c1ccc(Cl)cc1,,inactive: -7.1%
Cc1cccc(C(=O)NCCN2CCN(c3ccccc3)CC2)c1,"inconclusive [inhibitor, partial curve, poor fit]",
Cc1nn(Cc2ccc(Cl)cc2)c(C)c1NC(=O)CSc1n[nH]c(C)c1[N+](=O)[O-],"inconclusive [inhibitor, partial curve, poor fit]",
CCOC(=O)c1c(NC(=O)c2ccc(Br)o2)sc(C)c1CC,"inconclusive [inhibitor, single point]",
Cc1ccc(-c2noc(-c3ccccc3NC(=O)C3CC(=O)N(c4ccccc4C)C3)n2)cc1 (stereo not given),,inactive: 11.5%
O=C(NCCc1nc2ccccc2n1Cc1ccc(Cl)cc1Cl)c1ccco1,"inconclusive [inhibitor, partial curve, poor fit]",
CCNS(=O)(=O)c1ccc(NC(=O)Nc2cccc(C(F)(F)F)c2)cc1,"inconclusive [inhibitor, full curve, poor fit]",
CC(Sc1ccc(S(=O)(=O)N2CCN(C)CC2)cn1)C(=O)Nc1cccc(Cl)c1Cl (stereo not given),"inconclusive [inhibitor, single point]",
